Measurements from PubChem BioAssay AID488969 (Vanderbilt High Throughput Screening Facility, 2010).
The full ranking holds about 110,000 compounds; the median of “z-score” is about -0.1, and the highest 2% start at about 2. Some of the results follow. Active and inactive are the calls of the source.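 Rule for the calls: active = z-score in the third read window above 3 or below -3; inactive = the rest.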

Each molecule was assayed against Metabotropic glutamate receptor 8 (Rattus norvegicus) (UniProt P70579) (assay: rat mGluR8 modulators via GIRK flux, primary screen, cell-based, thallium flux, HTS (AID 488969)). Settings: HEK293 rat mGluR8, GIRK (G protein-gated inwardly rectifying potassium channel) thallium flux, FluoZin2; at 10 µM; stronger effect = higher value; submaximal glutamate (EC20) added with thallium.
Sequence of UniProt P70579 (P70579 whole entry, looked up): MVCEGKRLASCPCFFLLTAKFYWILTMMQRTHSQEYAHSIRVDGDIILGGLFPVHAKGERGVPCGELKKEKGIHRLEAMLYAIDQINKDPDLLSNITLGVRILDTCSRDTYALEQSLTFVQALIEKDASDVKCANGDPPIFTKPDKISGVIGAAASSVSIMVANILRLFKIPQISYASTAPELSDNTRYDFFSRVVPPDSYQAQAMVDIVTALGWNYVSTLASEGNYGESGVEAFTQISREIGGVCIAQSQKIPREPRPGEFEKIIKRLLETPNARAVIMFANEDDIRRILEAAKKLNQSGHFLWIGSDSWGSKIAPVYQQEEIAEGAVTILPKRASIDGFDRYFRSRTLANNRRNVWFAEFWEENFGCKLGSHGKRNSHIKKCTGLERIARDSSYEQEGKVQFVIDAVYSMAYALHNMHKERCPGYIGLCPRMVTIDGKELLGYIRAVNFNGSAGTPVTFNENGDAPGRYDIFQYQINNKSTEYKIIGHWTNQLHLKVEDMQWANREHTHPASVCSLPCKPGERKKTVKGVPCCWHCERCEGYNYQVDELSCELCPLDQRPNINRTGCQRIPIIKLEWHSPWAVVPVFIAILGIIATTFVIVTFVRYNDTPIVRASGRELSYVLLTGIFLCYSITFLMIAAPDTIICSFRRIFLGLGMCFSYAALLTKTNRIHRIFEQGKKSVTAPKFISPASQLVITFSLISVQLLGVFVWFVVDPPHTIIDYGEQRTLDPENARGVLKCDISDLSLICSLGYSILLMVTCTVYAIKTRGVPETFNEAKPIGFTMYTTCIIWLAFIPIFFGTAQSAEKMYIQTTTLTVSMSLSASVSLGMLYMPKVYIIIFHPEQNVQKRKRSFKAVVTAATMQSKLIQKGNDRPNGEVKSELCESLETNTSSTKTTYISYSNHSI

| Structure (SMILES) | z-score |
| --- | --- |
| CCOC(=O)c1c(NC(=S)NC(C)=O)sc(C)c1C | 0.353 |
| Cc1occc1-c1nnc(SCC(=O)Nc2ccc3c(c2)OCO3)n1CC1CCCO1 (stereo unspecified) | -0.473 |
| CC(C)(C)NC(=O)Nc1ccccc1C(N)=O | 0.13 |
| CC(=O)Nc1cccc(NC(C)=C(C#N)C#N)c1 | -0.0637 |
| CCN(CC)C(=O)NC(c1ccc(C)c(F)c1)C(Cl)(Cl)Cl (stereo unspecified) | -0.501 |
| COc1ccc(/C=C/C(=O)Nc2ccc3c(c2)OCCO3)cc1OC | 0.00357 |
| O=C(CSc1ccccc1)N1CCN(c2ccccc2)CC1 | -0.0289 |
| O=C(CSc1nnc(Nc2ccccc2F)s1)Nc1cccc(S(=O)(=O)N2CCCCC2)c1 | -0.487 |
| S=C1NC(c2cccs2)=CC(c2ccc(Br)cc2)N1 (stereo unspecified) | 0.185 |
| Cc1ccc(Nc2cccccc2=O)cc1 | 0.593 |
| Cc1cc(/C=N/NC(N)=S)c(C)n1-c1ccc(Cl)c(Cl)c1 | -0.189 |
| COc1ccc2nc(NC3=NCCC3)sc2c1 | 0.827 |
| COc1ccc(C(=O)c2ccc(N3CCOCC3)cc2)c(OC)c1 | 0.0558 |
| O=C(N/N=C\c1cccc(OC(=O)c2ccco2)c1)c1ccc2c(c1)OCO2 | -0.123 |
| CCS(=O)(=O)C(=C1Nc2ccccc2N1)S(=O)(=O)CC | 0.884 |
| Cc1ccc(C2C3=C(CC(C)(C)CC3=O)N(CCN3CCOCC3)C3=C2C(=O)CC(C)(C)C3)cc1 | -2.9 |
| Cc1cccc(C(=O)NNC(=O)C(=O)NC(C)(C)C)c1 | 2.45 |
| Clc1cccc(Cl)c1CON/C=N/c1ncnc2sccc12 | 0.0115 |
| C=CCn1c(SCC(=O)Nc2cc(C)on2)nc2sc3c(c2c1=O)CCCC3 | 0.151 |

| Structure (SMILES) | z-score |
| --- | --- |
| Cc1noc(C)c1C(=O)N1CCc2ccccc21 | -0.354 |
| O=C(NNc1c(Cl)cc(Cl)cc1Cl)C1CCC1 | -0.0924 |
| CC(C)CNc1cc(N2CCCC2)ccc1[N+](=O)[O-] | -1.85 |
| N/C(COc1ccccc1)=N\NS(=O)(=O)c1ccccc1 | -0.0376 |
| COc1cccc(CNC(=O)CCS(=O)(=O)c2cccc3nsnc23)c1 | 0.124 |
| COc1ccccc1NC(=S)NNC(=O)c1ccc(Cl)cc1Cl | -0.541 |
| O=C(c1ccc(Cl)cc1)c1cc(-c2ccccn2)c(N2CCOCC2)s1 | -0.873 |
| COc1ccc(N2CCN(C(=O)Nc3cccc(C(F)(F)F)c3)CC2)cc1 | -0.347 |
| O=C(NCCN1CCN(C(=O)c2cc3ccccc3oc2=O)CC1)c1cc2ccccc2oc1=O | 0.204 |
| CCc1cccc(N=c2c([N+](=O)[O-])nn(-c3ccc(Cl)cc3)n2O)c1 | -0.121 |
| CCn1c2ccccc2c2cc(N=C3SC(CC(=O)Nc4ccccc4OC)C(=O)N3C)ccc21 (stereo unspecified) | -0.0766 |
| O=c1c2c3c(sc2nc2n1CCCCC2)CCC3 | -0.21 |
| O=C(O)CNC(=O)c1ccc(S(=O)(=O)N2CCOCC2)cc1 | 0.515 |
| CCCCNC(=O)C1CC(=O)N(c2ccc(OC)cc2)C1c1ccc(OC)cc1 (stereo unspecified) | -0.281 |
| Nc1ccc(S(=O)(=O)N2CCCc3ccccc32)cc1 | -0.0978 |
| Cc1cccc(OCC(=O)Nc2ccccc2N2CCN(C(=O)C(C)C)CC2)c1C | -2.4 |
| O=C(CN1C(=O)c2cccc3cccc(c23)C1=O)N1CCN(c2ccccn2)CC1 | active: 8.64 |
| CCNS(=O)(=O)c1ccc(NC(=S)NCc2ccco2)cc1 | -0.206 |
| CCN(CC)C(=O)c1cc2c(=O)oc3ccccc3c2s1 | -0.682 |

| Structure (SMILES) | z-score |
| --- | --- |
| CCOC(=O)CSC1=C(C#N)C(c2ccccc2)C(C(C)=O)=C(C)N1 (stereo unspecified) | -0.808 |
| O=C(NCCCCO)C(F)(F)C(F)(F)C(F)(F)C(=O)NCCCCO | 0.251 |
| CC(C)n1c(=S)[nH]c2ccccc21 | -0.0644 |
| CC(C)C(=O)N=C1SC2CS(=O)(=O)CC2N1Cc1ccccc1 (stereo unspecified) | -0.173 |
| Cc1ccc(C)c(Cn2c(CN(C)Cc3ccccc3)nc3c2c(=O)n(C)c(=O)n3C)c1 | -0.41 |
| CCN1C(=O)/C(=C\N(C)C)NC1=S | -0.121 |
| CC(C)Cn1c(CCC(=O)O)ccc1-c1cccs1 | 1.1 |
| O=S(=O)(NCc1ccc(F)cc1)c1cccc(S(=O)(=O)N2CCOCC2)c1 | 0.531 |
| O=C(NNC(=O)c1ccc(SCC2CCCO2)c([N+](=O)[O-])c1)c1ccc(Cl)c([N+](=O)[O-])c1 (stereo unspecified) | -0.537 |
| Cc1cc(C(=O)NCC(=O)OCC(=O)N(C(C)C)C(C)C)ccc1[N+](=O)[O-] | -0.0582 |
| CCCCSc1nnc([C@H](CC(C)C)NC(=O)OC(C)(C)C)o1 | -0.246 |
| Cc1ccc(NC2OC(C(O)CO)C(O)C2O)cc1[N+](=O)[O-] (stereo unspecified) | -0.123 |
| Cc1ccc(C)c(CN2CCNC2=O)c1 | 0.218 |
| O=c1c2ccccc2nc(-c2cccc(Cl)c2)n1O | 1.74 |
| Cc1cc2ccccc2c(=O)n1CC(=O)NCC(=O)N(C)C1CCCCC1 | 0.799 |
| CC1(C)CC(=O)C(N=Nc2ccc(Cl)cc2)=C(O)C1 | -0.154 |
| Cc1cc(Oc2ccc(-c3nnc(-c4ccccc4)o3)cc2[N+](=O)[O-])ccc1Cl | -0.279 |
| C=CCn1c(=NC(=O)C2COc3ccccc3O2)sc2cc(S(N)(=O)=O)ccc21 (stereo unspecified) | 0.0113 |
